Data on 64 molecules can be found in paper PMC6919601, “Identification of Plasmodium dipeptidyl aminopeptidase allosteric inhibitors by high throughput screening” (PLoS ONE, 2019).

Among all 110,000 compounds or so, about 230 (0.21%) showed an effect of 50% or more. The list shows a part of the results.
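Also: 30 min substrate incubation versus DMSO and 10 µM JCP410 controls.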

Chain of DPAP1 (Q8IIJ9 whole entry, looked up): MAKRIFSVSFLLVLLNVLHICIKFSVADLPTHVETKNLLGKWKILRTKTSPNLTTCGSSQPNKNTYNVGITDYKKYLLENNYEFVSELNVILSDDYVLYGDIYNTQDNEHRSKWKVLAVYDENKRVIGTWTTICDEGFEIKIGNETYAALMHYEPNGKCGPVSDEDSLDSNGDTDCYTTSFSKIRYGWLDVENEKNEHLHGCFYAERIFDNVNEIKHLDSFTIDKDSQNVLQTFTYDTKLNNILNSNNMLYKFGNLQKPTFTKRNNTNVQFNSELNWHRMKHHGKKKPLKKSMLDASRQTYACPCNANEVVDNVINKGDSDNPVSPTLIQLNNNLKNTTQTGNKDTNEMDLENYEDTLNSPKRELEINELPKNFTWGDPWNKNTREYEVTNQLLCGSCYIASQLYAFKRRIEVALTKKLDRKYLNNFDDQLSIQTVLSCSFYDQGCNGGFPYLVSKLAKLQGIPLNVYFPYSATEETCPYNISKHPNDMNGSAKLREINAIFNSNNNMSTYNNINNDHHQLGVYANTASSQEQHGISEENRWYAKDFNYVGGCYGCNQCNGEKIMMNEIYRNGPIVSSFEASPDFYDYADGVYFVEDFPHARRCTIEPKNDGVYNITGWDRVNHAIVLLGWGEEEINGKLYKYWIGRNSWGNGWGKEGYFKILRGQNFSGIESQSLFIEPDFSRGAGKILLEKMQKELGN

The test concerns the target DPAP1 (Plasmodium falciparum, UniProt Q8IIJ9). Nature of the test: primary screen, percent inhibition; read by cleavage of a fluorogenic dipeptide substrate; higher = more effect of the substance. More on the design: species or system P. falciparum D10 trophozoite lysates; single well.
For `CCOCCCNCc1c(C(=O)O)n(Cc2ccc(F)cc2Cl)c2cc(OC)ccc12`, the “% Inhibition @ 10 uM” value is 9.28%.

Take `CCOCCOC(=O)c1cccc2c1-c1ccccc1C2=O`: the “% Inhibition @ 10 uM” value was 1.76%.

`CC(C)Cn1cc(NC(=O)N2CCN(Cc3ccccc3)CC2)c2ccccc2c1=O`: the “% Inhibition @ 10 uM” value turned out to be 5.07%.

Regarding `Cc1c(Cl)cccc1NC(=O)CSc1nc2ccc(N)cc2s1`, the “% Inhibition @ 10 uM” value is reported as -1.59%.

On to `FC(F)(F)c1nnc(-c2ccccc2)o1`, for which the “% Inhibition @ 10 uM” value is recorded as -2.55%.

For `O=c1cc(COc2cccc(Cl)c2Cl)nc2scc(-c3ccccc3)n12`, the “% Inhibition @ 10 uM” value was -3.14%.

Regarding `COC(=O)C1CC=CCC1C(=O)c1c[nH]c2ccccc12` (stereo not shown), the “% Inhibition @ 10 uM” value is given as 2.62%.

As for `O=C(CSc1nc(O)cc(-c2ccccc2)n1)Nc1ccccc1`, the “% Inhibition @ 10 uM” value was determined as 2.38%.

For the molecule `O=C1CSC(c2ccccc2)N1C1CCCCC1` (stereo not shown), the “% Inhibition @ 10 uM” value is recorded as -1.84%.

Consider `Cc1ccc(N2C(=O)NC(=O)/C(=C/Nc3ccccc3)C2=O)cc1`, for which the “% Inhibition @ 10 uM” value worked out at 5.66%.

Turning to `COc1ccc(OC)c(CCNC(=O)c2ccc(CS(=O)(=O)c3c(Cl)cccc3Cl)o2)c1`, the “% Inhibition @ 10 uM” value is listed as -3.21%.

Turning to `CCOc1ccc(CNCCCSc2nnnn2C)cc1`, the “% Inhibition @ 10 uM” value was -4.71%.

Turning to `CN(C(=O)c1cc(-c2ccccc2)[nH]n1)C1CCCCC1`, the “% Inhibition @ 10 uM” value is 0.359%.

As for `O=C(C1=C(O)C(=O)N(CC2CCCO2)C1c1ccc(F)cc1)c1ccco1` (stereo not shown), the “% Inhibition @ 10 uM” value is listed as -4.91%.

On to `COP(=O)(CC(=O)O)c1ccccc1` (stereo not shown), for which the “% Inhibition @ 10 uM” value is given as 3.47%.

In the case of `CCOC(=O)c1c(C)[nH]c(C)c1S(=O)(=O)N(C)CC(=O)NCc1cc(C)ccc1C`, the “% Inhibition @ 10 uM” value is given as 3.12%.

Regarding `Cc1cc(NS(=O)(=O)c2ccc(NC(=O)c3ccc(F)cc3)cc2)no1`, the “% Inhibition @ 10 uM” value is -0.884%.

Consider `CCN(CC)C(=O)C1CCCN(c2ncnc3c2cnn3-c2ccc(Cl)cc2)C1` (stereo not shown), for which the “% Inhibition @ 10 uM” value is -3.2%.

Consider `Cc1ccc(-n2cccc2C=C2C(=O)N(C)C(=O)N(C)C2=O)cc1Cl`, for which the “% Inhibition @ 10 uM” value is -7.15%.

Consider `c1cc(CN2CCC(N3CCCCC3)CC2)co1`, for which the “% Inhibition @ 10 uM” value is listed as -3.5%.

For the molecule `COc1ccc(CSc2nncn2C)cc1`, the “% Inhibition @ 10 uM” value is 0.0719%.

For `COc1ccccc1C1CC(c2ccc(C)cc2)=NN1C(=O)CCC(=O)O` (stereo not shown), the “% Inhibition @ 10 uM” value is given as -2.86%.

Turning to `N#CC1=C(N)OC2=C(C(=O)CC(c3ccccc3)C2)C1c1ccc(Br)cc1` (stereo not shown), the “% Inhibition @ 10 uM” value was -4.94%.

Regarding `COc1cc(C2C(C(N)=O)=C(C)Nc3ncnn32)ccc1OCC(N)=O` (stereo not shown), the “% Inhibition @ 10 uM” value is 4.41%.

Take `O=C(NCCc1nc2ccccc2[nH]1)c1ccc(-c2ccccc2)cc1`: the “% Inhibition @ 10 uM” value is -0.48%.

On to `Cc1ccc(/C(O)=C/C2=NCCNC2=O)cc1`, for which the “% Inhibition @ 10 uM” value was determined as 2.4%.

In the case of `Cc1occc1-c1nnc2sc(-c3ccc(-c4ccccc4Cl)o3)nn12`, the “% Inhibition @ 10 uM” value stood at 3.18%.

As to `O=C(NCc1cccnc1)C1CCCN(S(=O)(=O)N2CCOCC2)C1` (stereo not shown), the “% Inhibition @ 10 uM” value amounted to 2.81%.

For the molecule `COc1ccc(-n2c(SCc3nc(-c4cccs4)no3)nnc2-c2ccncc2)cc1`, the “% Inhibition @ 10 uM” value was -4.02%.

Take `CC(C)(C)Sc1ccc(C(=O)O)s1`: the “% Inhibition @ 10 uM” value is -0.0372%.

Consider `CCC(=O)N1c2ccccc2N=C2CC(C)(C)CC(O)=C2C1c1cc(OC)c(OC)c(OC)c1` (stereo not shown), for which the “% Inhibition @ 10 uM” value is given as -1.44%.

With `CCCCN1C(=O)C(NC(=O)c2ccc(C(C)(C)C)cc2)(C(F)(F)F)C2=C1CC(C)(C)CC2=O` (stereo not shown), the “% Inhibition @ 10 uM” value turned out to be 3.54%.

On to `Cc1ccc(CNC(=O)CC(C)n2nc(C)cc2C)cc1` (stereo not shown), for which the “% Inhibition @ 10 uM” value was 3.66%.

For the molecule `O=C1S/C(=C/c2cccc(O)c2)C(=O)N1Cc1ccc(F)cc1`, the “% Inhibition @ 10 uM” value was -1.88%.

For the molecule `CC(=O)N1CCN(C(C)Cc2ccccc2F)CC1` (stereo not shown), the “% Inhibition @ 10 uM” value was -6.62%.

For `Cc1ccccc1NC(=O)C1C2CCC(O2)C1C(=O)O` (stereo not shown), the “% Inhibition @ 10 uM” value is -3.34%.

Consider `O=C(c1ccc(CS(=O)c2ccccc2)o1)N1CCOCC1` (stereo not shown), for which the “% Inhibition @ 10 uM” value is -4.96%.

As for `COc1ccc(C2C(C#N)=C(N)Oc3cc(N)ccc32)cc1` (stereo not shown), the “% Inhibition @ 10 uM” value is on record as 6.29%.

For the molecule `Cc1ccc(CNC(=O)c2nnn(Cc3cccc(Br)c3)c2N)cc1`, the “% Inhibition @ 10 uM” value is reported as -8.27%.

As for `COc1ccc(C2=NS(=O)(=O)N(C)C(C(=O)N3CCc4ccccc4C3)=C2)cc1OC`, the “% Inhibition @ 10 uM” value is reported as -1.06%.

`N#CCNC(=O)C(CC1CCCCC1)C(=O)Nc1cccc(C(N)=O)c1` (stereo not shown): the “% Inhibition @ 10 uM” value is -5.21%.

Turning to `Cc1ccc(-c2nc(CS(=O)(=O)CC(=O)NCc3ccc4c(c3)OCO4)c(C)o2)cc1`, the “% Inhibition @ 10 uM” value is reported as -5.58%.

Take `C=CCOc1nc(-c2ccc(C)cc2)cc(-c2ccc(OC)cc2)n1`: the “% Inhibition @ 10 uM” value was 1.13%.

Consider `Cn1c(CNC(=O)c2ccccc2)nc2ccccc21`, for which the “% Inhibition @ 10 uM” value was -8.18%.

On to `COc1ccc(CNC(=O)C(CC(C)C)NS(=O)(=O)c2ccc3nc(C)sc3c2)cc1` (stereo not shown), for which the “% Inhibition @ 10 uM” value worked out at 2.12%.

On to `O=C(Nc1cccc(C(F)(F)F)c1)c1ccccc1C(=O)c1ncc[nH]1`, for which the “% Inhibition @ 10 uM” value is given as 2.65%.

Consider `COC(=O)c1c(NC(=O)CCC(=O)O)sc(Cc2ccccc2)c1C`, for which the “% Inhibition @ 10 uM” value was -3.21%.

In the case of `COc1ccc(CC(C)NC(C)CCCC(C)(C)O)cc1OC` (stereo not shown), the “% Inhibition @ 10 uM” value is -1.81%.

`Cc1cc(=O)n2nc(N3CCCC(C(=O)NC(C)c4ccccc4)C3)sc2n1` (stereo not shown): the “% Inhibition @ 10 uM” value is on record as -0.281%.

In the case of `COc1ccc(NC(=O)CSc2nc3ccccc3s2)c(OC)c1`, the “% Inhibition @ 10 uM” value was -1.06%.

With `COc1ccc(C(=O)Nc2ccc3c(c2)C(=O)N(C2CCCCC2)C3=O)cc1`, the “% Inhibition @ 10 uM” value came to 2.62%.

With `CCOc1ccc(CNC(=O)Cn2ncn3c(cc4sc(CC)cc43)c2=O)cc1`, the “% Inhibition @ 10 uM” value was -3.47%.

As to `O=C(O)c1[nH]c(=O)[nH]c(=O)c1CN1CCCCC1`, the “% Inhibition @ 10 uM” value came to 1.24%.

On to `Cc1ccc(-c2nc3cc(NC(=O)c4cccs4)ccc3[nH]2)o1`, for which the “% Inhibition @ 10 uM” value is given as 0.331%.

`CSc1nc(Cl)c(C#N)c(Nc2ccc3c(c2)OCCO3)n1`: the “% Inhibition @ 10 uM” value is listed as 5.87%.

In the case of `CCNC(=O)/C(=C\c1ccc(OC)cc1)NC(=O)c1ccccc1`, the “% Inhibition @ 10 uM” value is on record as -6.38%.

For the molecule `CSc1ncc(Cl)c(C(=O)N(Cc2ccccc2)c2ccccn2)n1`, the “% Inhibition @ 10 uM” value is given as -1.35%.

In the case of `CSc1ncc(C(=O)NCCc2c[nH]c3ccccc23)c(-c2ccccc2)n1`, the “% Inhibition @ 10 uM” value is -2.48%.

`Cc1ccc(Cl)cc1NC(=O)c1ccc([N+](=O)[O-])c(C)c1`: the “% Inhibition @ 10 uM” value was -0.546%.

With `CC(=O)N[C@@H](CC(C)C)C(=O)N[C@H]1CCN(C(=O)[C@H](CC(C)C)NC(=O)c2ccc(-c3cnc(Nc4ccncc4)s3)cc2)C1`, the “% Inhibition @ 10 uM” value stood at 17%.

On to `O=C1c2ccccc2C(=O)N1CCc1ccccc1`, for which the “% Inhibition @ 10 uM” value was -5.84%.

Regarding `CCCC(=O)Nc1nc2nc(CCC)cc(O)n2n1`, the “% Inhibition @ 10 uM” value is 2.05%.

With `c1cc2nncn2nc1N1CCOCC1`, the “% Inhibition @ 10 uM” value was -0.692%.

Take `CCCSc1nc2c(c(=O)n(C)c(=O)n2C)n1Cc1ccccc1`: the “% Inhibition @ 10 uM” value is reported as 2.46%.
